Test results reported in PubChem BioAssay AID1671193 (National Center for Advancing Translational Sciences (NCATS), 2021).
Out of some 150,000 compounds screened, about 180 (0.12%) were called active. Inconclusive results, whose numbers are uncertain, are shown with a selection of clear calls. Calls come from the whole dose curve; as a rule, active = well fitted cell-killing curve with a large enough effect; inconclusive = small, poorly fitted or top-dose-only effect, or effect the other way; inactive = flat fitted curve, though single readings scatter. Where the call is inconclusive, the potency comes from a doubtful curve fit.

Experiment: GF-AFC viability counterscreen for inhibitors of alpha-synuclein gene (SNCA) expression; note: nearly all actives have a fitted effect of over 30% in size;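 for activity change, negative = cytotoxicity: 0% = DMSO-treated cells and -100% = medium-only wells without cells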
Settings: HEK-293-SNCA-luc viability, GF-AFC fluorescence, 24 h; activity change, negative = cytotoxicity: at 57.1 µM (top of the series) unless noted
Summary of the method: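 HEK-293-SNCA-luc cells (1500/well) plated 24 h, then exposed 24 h to a dilution series; GF-AFC added 30 min at 37C, fluorescence 405/540 nm; normalised to medium-only and DMSO wells, Hill fit.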
Potency is the fitted concentration of half-maximal effect; tags give direction and shape of the fitted curve.

Row | Compound | Potency | activity change, negative = cytotoxicity
1 | CC(C)(C)c1cnc(CSc2cnc(NC(=O)C3CCNCC3)s2)o1 | inconclusive: 0.961 µM [cytotoxic, full curve] | 
2 | CN(CCCN1CCCCCC1)c1nc(-c2ccncc2)nc2c1cnn2C | inconclusive: 20 µM [cytotoxic, single point] | 
3 | COc1cccc(C(c2sc3nc(-c4ccco4)nn3c2O)N2CCOCC2)c1 (stereo unspecified) | inconclusive: 39.8 µM [cytotoxic, single point] | 
4 | Cc1ccccc1[C@H]1C[C@@H](O)[C@@H](O)[C@@H]1NC(=O)c1nc2ccccc2s1 |  | inactive: -20.4% [at 87.6 µM]
5 | Cc1ccc(F)cc1S(=O)(=O)N[C@@H]1CN(c2ncccn2)C[C@H]1CN(C)C |  | inactive: 16.9%
6 | COC1CCN(c2cc(-c3cccc(C(F)(F)F)c3)nc3c(C)noc23)CC1 |  | inactive: 1.34% [at 87.6 µM]
7 | COc1ccc(-c2nc3cnc(Nc4cccc(OC)c4)nc3n(C)c2=O)cc1 | inconclusive: 3.16 µM [rising, single point] | 
8 | O=C(Cn1nc2c(cc1=O)CCCC2)Nc1cccc(-c2ncn[nH]2)c1 | inconclusive: 22.4 µM [cytotoxic, partial curve, poor fit] | 
9 | CCOc1cc(CNC2CCCC2)cc(Cl)c1OCc1ccc(Cl)cc1 | inconclusive: 23.8 µM [cytotoxic, single point] | 
10 | COc1ccc(-c2nc(C3CC(=O)N(Cc4ccccc4OC)C3)no2)c(C)c1 (stereo unspecified) |  | inactive: -13%
11 | COc1ccc(-c2cc3c(=O)n(CC(=O)Nc4ccc(Br)c(C)c4)ccn3n2)cc1OC | inconclusive: 0.398 µM [rising, full curve, poor fit] | 
12 | CC(C)C[C@@H]1N[C@H](C(=O)NCCOc2ccccc2)Cc2cn(C)c3cccc1c23 | inconclusive: 56.2 µM [cytotoxic, single point] | 
13 | O[C@H]1[C@H](n2cc(-c3cccc(F)c3)nn2)c2ccccc2C12CCNCC2 | inconclusive: 8.91 µM [cytotoxic, partial curve, poor fit] | 
14 | CCOC(=O)C1=C(CS(=O)(=O)c2ccc(C(C)(C)C)cc2)NC(=O)NC1c1cccc(OC)c1 (stereo unspecified) | inconclusive: 28.2 µM [cytotoxic, partial curve, poor fit] | 
15 | CC1Oc2ccc(NC(=O)Cc3ccc(F)cc3)cc2CN(Cc2ccccc2F)C1=O (stereo unspecified) |  | inactive: -3.23%
16 | COc1cc(Cl)ccc1C(=O)N1CCN(C(=O)c2nnn3c2COC(c2ccccc2)C3)CC1 (stereo unspecified) | inconclusive: 39.8 µM [cytotoxic, single point] | 
17 | CCOc1ccccc1N(C)C(=O)c1cc(S(=O)(=O)NCCc2ccc(Cl)cc2)ccc1F | inconclusive: 35.5 µM [cytotoxic, single point] | 
18 | C/C=C1/[C@H](O[C@@H]2O[C@H](CO)[C@@H](O)[C@H](O)[C@H]2O)OC=C(C(=O)OC)[C@H]1CC(=O)O[C@@H]1O[C@H](CO)[C@@H](O)[C@H](O)[C@H]1O | inconclusive: 0.0018 µM [rising, full curve] | 
19 | COCCN(CCOC)C(=O)[C@@H](C)C1CC[C@@]2(C)CC[C@H](NC(=O)COC)[C@@H](C)[C@@H]2[C@H]1O (stereo partly specified) |  | inactive: -0.145%
20 | Cc1c(Cl)cccc1NC(=O)C1CCCN(C(=O)c2cnn(-c3ccccc3)c2-n2cccc2)C1 (stereo unspecified) | inconclusive: 39.8 µM [cytotoxic, single point] | 
21 | Cn1cc(CC(=O)N2CCCc3ncc(C(=O)Nc4cccc(F)c4)cc32)c2ccccc21 | inconclusive: 39.8 µM [cytotoxic, single point] | 

Row | Compound | Potency | activity change, negative = cytotoxicity
22 | COc1ccc(Cl)cc1-c1ccc2c(c1)C(=O)N1CCN(C(=O)COc3ccccc3)C[C@@H]1C(=O)N2 |  | inactive: -10%
23 | CN(C)C(=O)C1CN(C(=O)Nc2cc(F)c(F)c(F)c2)CC12CCOCC2 (stereo unspecified) |  | inactive: 3.32%
24 | Cc1noc(C)c1CC(=O)NCC1Cn2cccc2C(=O)N1CC(C)C (stereo unspecified) | inconclusive: 15.8 µM [cytotoxic, partial curve, poor fit] | 
25 | O=c1cc(N2CCOCC2)oc2c(-c3ccc(F)c(Cl)c3)nccc12 |  | inactive: 1.18% [at 87.6 µM]
26 | Cc1ccc(NC(=O)CSc2c3c(nc4ccccc24)CCCC3)cc1F | inconclusive: 25.1 µM [cytotoxic, partial curve, poor fit] | 
27 | CCN(Cc1cccnc1)C(=O)c1cc(-c2cnn(CC)c2)nc2cc(C)ccc12 |  | inactive: -8.88%
28 | Cc1cc2occ(CN(C)CCN(C)Cc3cn(-c4cccc(C(F)(F)F)c4)c4ccccc34)c(=O)c2cc1C | inconclusive: 37.7 µM [cytotoxic, single point] | 
29 | Cc1cn2nc(C(=O)N3CCN(C(=O)c4ccco4)CC3)cc2c(N2CCCC2)n1 | inconclusive: 22.4 µM [rising, partial curve, poor fit] | 
30 | O=C(CSc1ccccc1)NCc1ccc2c(c1)CCN2C(=O)c1ccc(Cl)cc1 | inconclusive: 0.316 µM [rising, full curve, poor fit] | 
31 | COc1ccc(C(=O)NCc2nnc3ccc(-c4ccc(C)c(C)c4)nn23)cc1 |  | inactive: -14.9%
32 | COc1cccc(Nc2cc(-c3cccs3)nc3c(C)noc23)c1 |  | inactive: 7.58% [at 87.6 µM]
33 | COc1ccccc1-c1cccc(CN2CCCC(C(=O)NCC(F)F)C2)c1 (stereo unspecified) | inconclusive: 22.4 µM [cytotoxic, single point] | 
34 | Cc1nnc(N2CCCC(C(=O)Nc3cccc(C(F)(F)F)c3)C2)c2nn(-c3ccccc3)c(C)c12 (stereo unspecified) | inconclusive: 7.94 µM [cytotoxic, full curve, poor fit] | 
35 | COc1ccc(C(=O)N2CCCn3nc(C)c(-c4ccccc4C(C)C)c32)cc1 | inconclusive: 39.8 µM [cytotoxic, partial curve, poor fit] | 
36 | CN(C)c1ncc2nc(-c3ccccc3)c(=O)n(C)c2n1 | inconclusive: 20 µM [rising, partial curve] | 
37 | CCCN1C(=O)c2[nH]nc(-c3ccccc3O)c2C1c1ccc(OCc2ccccc2)c(OCC)c1 (stereo unspecified) | inconclusive: 39.8 µM [cytotoxic, single point] | 
38 | CC(=O)NC[C@@H]1C=C(C)[C@H](Cc2nc3ccc(C)cc3[nH]2)C[C@H]1C(C)C | inconclusive: 14.1 µM [cytotoxic, partial curve, poor fit] | 
39 | C=CC(=O)N1CCC[C@@H](n2nc(-c3cccc(C(=O)Nc4ccc(C(C)C)c(C)c4)c3)c3c(N)ncnc32)C1 | inconclusive: 18.9 µM [cytotoxic, partial curve, poor fit] | 
40 | COc1cccc(CNC(=O)[C@@H]2C[C@@H](O)CN2C2CCN(C(=O)CC(C)C)CC2)c1 |  | inactive: 5.22%
41 | CC1=C[C@@H](CC#N)[C@H](C(C)C)C[C@H]1CC(=O)N1CCC(C)CC1 | inconclusive: 11.2 µM [cytotoxic, partial curve, poor fit] | 
42 | CCCc1nc(C(=O)NCc2ccc(-n3ccnc3C)cc2)cs1 | inconclusive: 3.98 µM [cytotoxic, full curve, poor fit] | 

Row | Compound | Potency | activity change, negative = cytotoxicity
43 | CCC1CCCCN1CCCNC(=O)CN1C(=O)c2cccnc2Oc2ccc(Cl)cc21 (stereo unspecified) |  | inactive: -2.74%
44 | Fc1ccccc1-c1n[nH]c2c1CN(Cc1cccc3c1OCO3)CC2 | inconclusive: 5.62 µM [rising, single point] | 
45 | CCC(Sc1nc2ccccc2c2nc(CCn3cncc3C)nn12)C(=O)Nc1cccc(OC)c1 (stereo unspecified) | inconclusive: 5.62 µM [cytotoxic, full curve, poor fit] | 
46 | Cc1cccc(CC(=O)N2CCC3(CCC(=O)N(CC4CC4)CC3)CC2)c1 |  | inactive: -7.31%
47 | O=C(NCC1CC1)c1cccc(OC2CN(Cc3cc4ccccc4nc3Cl)C2)c1 | inconclusive: 35.5 µM [cytotoxic, partial curve, poor fit] | 
48 | CN(C)c1ccc(CN2CCCC3(C2)C(=NC2CCCCC2)NC(=O)N3c2cc(F)cc(F)c2)cc1 (stereo unspecified) | inconclusive: 39.8 µM [cytotoxic, single point] | 
49 | COc1cc(Br)c(Nc2nc(-c3c(C)nc4ncccn34)cs2)c(Br)c1 | active: 5.97 µM | 
50 | Cc1c(C(=O)N(Cc2ccc(N(C)C)cc2)C2CCS(=O)(=O)C2)oc2ccccc12 (stereo unspecified) | inconclusive: 4.47 µM [cytotoxic, partial curve, poor fit] | 
51 | CCCc1noc(-c2cccn3c(CNC(=O)CCc4ccccc4)nnc23)n1 |  | inactive: -14.7%
52 | Cc1ncsc1C(=O)N1CCC2(CC1)OC(=O)N(Cc1ccccc1F)C2(C)c1ccccc1 (stereo unspecified) |  | inactive: -1.32%
53 | CCOC(=O)C1(Cc2ccc(Cl)cc2)CCN(C(=O)c2cc(C)oc2C)CC1 | inconclusive: 8.91 µM [cytotoxic, partial curve, poor fit] | 
54 | COc1ncc(-c2ccc3ncn(-c4ccc(F)cc4F)c(=O)c3n2)cn1 |  | inactive: -7.28% [at 87.6 µM]
55 | CCOc1cccc(C2Nc3ccccc3-c3cc(C)nn32)c1O (stereo unspecified) | inconclusive: 15.8 µM [rising, partial curve, poor fit] | 
56 | COc1ccc(C(=O)NC2CCCN(CCc3ccccc3)C2)c(OC)n1 (stereo unspecified) |  | inactive: -5.83%
57 | COc1ccc(Cn2nnc3c(=O)[nH]c(C4CCCN(C(=O)c5ccc(C)cc5)C4)nc32)cc1 (stereo unspecified) | inconclusive: 20 µM [cytotoxic, single point] | 
58 | COc1ccc(CCNC(=O)Cn2c(=O)n(-c3ccc(C)c(C)c3)c(=O)c3c(C)c(C)sc32)cc1OC | inconclusive: 0.562 µM [cytotoxic, full curve, poor fit] | 
59 | Cc1nc(CN2Cc3nc(Nc4ccc(C(F)(F)F)cc4)ccc3OCC2=O)cs1 | inconclusive: 35.5 µM [cytotoxic, partial curve, poor fit] | 
60 | O=C(Nc1nc2n(n1)C(c1ccc(F)cc1)C=C(c1ccccc1)N2)c1ccc(Cl)cc1 (stereo unspecified) | inconclusive: 25.1 µM [rising, single point] | 
61 | CCCc1cnc2c(c1SCC(=O)N1CCC(C)CC1)c(=O)n(C)c(=O)n2C | inconclusive: 15.8 µM [cytotoxic, partial curve, poor fit] | 
